We go through 153 variants from a collection of fitness landscapes (doi:10.1126/science.1257360).

Some of the results follow. Bounds are passed on as bounds.

B1: PhoQ; a variant is named by its letters at X, in order, P23837 (parent)
chain: MKKLLRLFFPLSLRVRFLLATAAVVLVLSLAYGMVALIGYSVSFDKTTFRLLRGESNLFYTLAKWENNKLHVELPENIDKQSPTMTLIYDENGQLLWAQRDVPWLMKMIQPDWLKSNGFHEIEADVNDTSLLLSGDHSIQQQLQEVREDDDDAEMTHSVAVNVYPATSRMPKLTIVVVDTIPVELKSSYMVWSWFIYVLSANLLLVIPLLWVAAWWSLRPIEALAKEVRELEEHNRELLNPATTRELTSLVRNLNRLLKSERERYDKYRTTLTDLTHSLKTPLXXLQXXLRSLRSEKMSVSDAEPVMLEQISRISQQIGYYLHRASMRGGTLLSRELHPVAPLLDNLTSALNKVYQRKGVNISLDISPEISFVGEQNDFVEVMGNVLDNACKYCLEFVEISARQTDEHLYIVVEDDGPGIPLSKREVIFDRGQRVDTLRPGQGVGLAVAREITEQYEGKIVAGESMLGGARMEVIFGRQHSAPKDE

This experiment covers variants of B1. Nature of the experiment: enrichment ratio after two sorts for PhoP signalling (ratio (wild type AVST 3.29)); higher = more functional. The settings on record: with PhoP (E. coli).
For the variant VKWL, the enrichment ratio is no more than 0.25.

For the variant SIIH, the enrichment ratio was no more than 0.25.

With QWWT, the enrichment ratio is no more than 0.25.

On to TGHM, for which the enrichment ratio was 4.7.

As for NPDP, the enrichment ratio was no more than 0.25.

Regarding FNCD, the enrichment ratio was no more than 0.25.

Consider SGTN, for which the enrichment ratio came to 1.24.

In the case of LMDH, the enrichment ratio was no more than 0.25.

For RRVS, the enrichment ratio was no more than 0.25.

PQRY: the enrichment ratio is no more than 0.25.

As for TNFR, the enrichment ratio is no more than 0.25.

With KGAN, the enrichment ratio is no more than 0.25.

For the variant PQFI, the enrichment ratio was no more than 0.25.

With PLAD, the enrichment ratio was no more than 0.25.

As to VAAG, the enrichment ratio was no more than 0.25.

In the case of LEST, the enrichment ratio was no more than 0.25.

Turning to QDRM, the enrichment ratio is no more than 0.25.

For the variant VKKL, the enrichment ratio was no more than 0.25.

With LDAN, the enrichment ratio is no more than 0.25.

Regarding QFRG, the enrichment ratio was no more than 0.25.

Turning to HSCE, the enrichment ratio was no more than 0.25.

As to VYPI, the enrichment ratio is no more than 0.25.

Consider VPWD, for which the enrichment ratio was no more than 0.25.

Take MQVQ: the enrichment ratio was no more than 0.25.

With IPIL, the enrichment ratio is no more than 0.25.

Consider LYCT, for which the enrichment ratio is no more than 0.25.

For the variant PGGD, the enrichment ratio was no more than 0.25.

With TGEA, the enrichment ratio was no more than 0.25.

Turning to GMPL, the enrichment ratio was no more than 0.25.

Turning to NRHA, the enrichment ratio is no more than 0.25.

Regarding GGNY, the enrichment ratio was no more than 0.25.

Turning to VLTY, the enrichment ratio is no more than 0.25.

For KTKY, the enrichment ratio is no more than 0.25.

Take NRKR: the enrichment ratio is no more than 0.25.

For the variant AGDS, the enrichment ratio was no more than 0.25.

As for TSLN, the enrichment ratio was found to be 16.9.

Consider KASW, for which the enrichment ratio is no more than 0.25.

Turning to VAHA, the enrichment ratio was no more than 0.25.

Take ASYP: the enrichment ratio was no more than 0.25.

GEQF: the enrichment ratio was no more than 0.25.

As for TQPA, the enrichment ratio is no more than 0.25.

With GMTK, the enrichment ratio is no more than 0.25.

As to QDII, the enrichment ratio was no more than 0.25.

As to HQNW, the enrichment ratio was no more than 0.25.

Consider IHTM, for which the enrichment ratio was no more than 0.25.

Take HKCS: the enrichment ratio is no more than 0.25.

For the variant GSSM, the enrichment ratio was 11.2.

For the variant PHRQ, the enrichment ratio was no more than 0.25.

For AMGN, the enrichment ratio stood at 1.38.

Regarding EGTW, the enrichment ratio is no more than 0.25.

On to NINW, for which the enrichment ratio was no more than 0.25.

Regarding ANDL, the enrichment ratio is no more than 0.25.

In the case of VMTC, the enrichment ratio is no more than 0.25.

For the variant DWMY, the enrichment ratio is no more than 0.25.

Turning to DMLT, the enrichment ratio is no more than 0.25.

Regarding GMIK, the enrichment ratio was no more than 0.25.

In the case of PDDR, the enrichment ratio is no more than 0.25.

Take VRTQ: the enrichment ratio was no more than 0.25.

Regarding TYSM, the enrichment ratio turned out to be 9.09.

In the case of FRCS, the enrichment ratio is no more than 0.25.

Consider DGYR, for which the enrichment ratio is no more than 0.25.

On to RCNI, for which the enrichment ratio was no more than 0.25.

Take WWCQ: the enrichment ratio is no more than 0.25.

Take KSWH: the enrichment ratio was no more than 0.25.

On to VQFF, for which the enrichment ratio is no more than 0.25.

For the variant WVHC, the enrichment ratio was no more than 0.25.

YWRS: the enrichment ratio is no more than 0.25.

Take KANQ: the enrichment ratio is no more than 0.25.

As to RQDP, the enrichment ratio is no more than 0.25.

LTMI: the enrichment ratio stood at 0.673.

For the variant VIME, the enrichment ratio was no more than 0.25.

Regarding IMAP, the enrichment ratio is no more than 0.25.

Take GHEY: the enrichment ratio was no more than 0.25.

In the case of TALP, the enrichment ratio was found to be 0.47.

TVAE: the enrichment ratio was no more than 0.25.

On to PNNN, for which the enrichment ratio is no more than 0.25.

For the variant QTAF, the enrichment ratio is 0.654.

On to ISRN, for which the enrichment ratio was no more than 0.25.

As for WTPW, the enrichment ratio is no more than 0.25.

In the case of KIQE, the enrichment ratio was no more than 0.25.

On to NWVS, for which the enrichment ratio was no more than 0.25.

With LSEK, the enrichment ratio was no more than 0.25.

For RDRA, the enrichment ratio is no more than 0.25.

Regarding INIG, the enrichment ratio was no more than 0.25.

As to SHFE, the enrichment ratio is no more than 0.25.

Regarding DSGI, the enrichment ratio was no more than 0.25.

Turning to KFKP, the enrichment ratio was no more than 0.25.

In the case of VIFY, the enrichment ratio is no more than 0.25.

WEVD: the enrichment ratio was no more than 0.25.

Consider IVLV, for which the enrichment ratio turned out to be 0.964.

As to PQQR, the enrichment ratio was no more than 0.25.

Turning to IPAT, the enrichment ratio was no more than 0.25.

On to NMNY, for which the enrichment ratio was no more than 0.25.

In the case of DNHF, the enrichment ratio is no more than 0.25.

QGYY: the enrichment ratio was determined as 0.374.

For PSYW, the enrichment ratio is no more than 0.25.

For the variant FMQI, the enrichment ratio was no more than 0.25.

With SHAG, the enrichment ratio is no more than 0.25.

As for AFYF, the enrichment ratio was no more than 0.25.

For NMFM, the enrichment ratio is no more than 0.25.

With DRTK, the enrichment ratio was no more than 0.25.

As to VLGV, the enrichment ratio is no more than 0.25.

As to PKTS, the enrichment ratio was no more than 0.25.

Regarding SAIR, the enrichment ratio was no more than 0.25.

As to YRKI, the enrichment ratio was no more than 0.25.

Turning to FNEI, the enrichment ratio was no more than 0.25.

With VMHR, the enrichment ratio is no more than 0.25.

Regarding KQWS, the enrichment ratio was no more than 0.25.

On to FVVI, for which the enrichment ratio was no more than 0.25.

With MSAQ, the enrichment ratio was found to be 9.85.

Take SVCL: the enrichment ratio is 11.

Take ATFG: the enrichment ratio is no more than 0.25.

In the case of ESYK, the enrichment ratio was no more than 0.25.

For RALC, the enrichment ratio is no more than 0.25.

Take LANN: the enrichment ratio was no more than 0.25.

Take MNGL: the enrichment ratio came out at 9.61.

With YVEF, the enrichment ratio is no more than 0.25.

As to TIYA, the enrichment ratio amounted to 0.91.

On to KNAG, for which the enrichment ratio was no more than 0.25.

Regarding EFHM, the enrichment ratio is no more than 0.25.

Consider VPFK, for which the enrichment ratio is no more than 0.25.

With NGKP, the enrichment ratio is no more than 0.25.

For the variant DWEL, the enrichment ratio was no more than 0.25.

SGRW: the enrichment ratio is no more than 0.25.

Regarding VEPV, the enrichment ratio is no more than 0.25.

For PIHY, the enrichment ratio is no more than 0.25.

For KPTM, the enrichment ratio was no more than 0.25.

NDVI: the enrichment ratio was no more than 0.25.

On to IDDH, for which the enrichment ratio is no more than 0.25.

As for VKAF, the enrichment ratio was no more than 0.25.

For WRWR, the enrichment ratio was no more than 0.25.

Consider WMLY, for which the enrichment ratio is no more than 0.25.

For the variant RMPF, the enrichment ratio is no more than 0.25.

As to YILH, the enrichment ratio was found to be 0.669.

As to YIMM, the enrichment ratio was no more than 0.25.

On to DEAT, for which the enrichment ratio is no more than 0.25.

As for VLSN, the enrichment ratio is no more than 0.25.

DDLV: the enrichment ratio is no more than 0.25.

As for DDMI, the enrichment ratio was no more than 0.25.

Take GWWI: the enrichment ratio is no more than 0.25.

QHVI: the enrichment ratio was no more than 0.25.

With FSTK, the enrichment ratio is no more than 0.25.

Take FMVR: the enrichment ratio was no more than 0.25.

With MQGF, the enrichment ratio is no more than 0.25.

As for QQFG, the enrichment ratio was 20.2.

On to TMGW, for which the enrichment ratio is no more than 0.25.

On to APIA, for which the enrichment ratio was no more than 0.25.

Consider QKFI, for which the enrichment ratio worked out at 0.998.

For TDTK, the enrichment ratio was no more than 0.25.

With FEYE, the enrichment ratio was no more than 0.25.

In the case of DPNM, the enrichment ratio was no more than 0.25.

Take SYNM: the enrichment ratio is no more than 0.25.

In the case of IGMD, the enrichment ratio was no more than 0.25.
